# The supplement of paper PMC8728848
# This is one part of the list.
# What was measured:
# Assay in all cases: glycan array binding signal (z-score within array); higher = stronger binding
# Details in all cases: glycan notation: IUPAC condensed, linker removed
# Gal3S(b1-4)GlcNAc = target: Gal3S(b1-4)GlcNAc
# Procedure, shortened: (§1)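 Glycan array data were curated from 3228 arrays in the Consortium for Functional Glycomics database and kept only where the protein sequence was available. Glycan names were converted to IUPAC-condensed notation, and columns mapping to the same glycan were averaged. The binding signal is a within-array Z-score, averaged across arrays of the same protein sequence at different concentrations or buffers and across linkers. Negative Z-scores can be read as non-binding.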
# Gal3S(b1-4)GlcNAc6S = target: Gal3S(b1-4)GlcNAc6S
# Procedure, shortened: as §1
# [1] = target: Gal3S(b1-4)[Fuc(a1-3)]Glc
# Procedure, shortened: as §1
# [2] = target: Gal3S(b1-4)[Fuc(a1-3)]Glc6S
# Procedure, shortened: as §1
# Gal3S4S(b1-4)GlcNAc = target: Gal3S4S(b1-4)GlcNAc
# Procedure, shortened: as §1
# Gal3S6S(b1-4)GlcNAc = target: Gal3S6S(b1-4)GlcNAc
# Procedure, shortened: as §1
# Gal3S6S(b1-4)GlcNAc6S = target: Gal3S6S(b1-4)GlcNAc6S
# Procedure, shortened: as §1
# Gal4S(b1-4)GlcNAc = target: Gal4S(b1-4)GlcNAc
# Procedure, shortened: as §1
# Gal4S6S(b1-4)GlcNAc = target: Gal4S6S(b1-4)GlcNAc
# Procedure, shortened: as §1
# Gal6S(b1-4)Glc = target: Gal6S(b1-4)Glc
# Procedure, shortened: as §1
# Gal6S(b1-4)Glc6S = target: Gal6S(b1-4)Glc6S
# Procedure, shortened: as §1
# Gal6S(b1-4)GlcNAc = target: Gal6S(b1-4)GlcNAc
# Procedure, shortened: as §1
# Gal6S(b1-4)GlcNAc6S = target: Gal6S(b1-4)GlcNAc6S
# Procedure, shortened: as §1
# GalNAc(a1-3)Gal = target: GalNAc(a1-3)Gal
# Procedure, shortened: as §1
# GalNAc(a1-3)GalNAc = target: GalNAc(a1-3)GalNAc
# Procedure, shortened: as §1
# [3] = target: GalNAc(a1-3)GalNAc(a1-3)Gal(a1-4)Gal(b1-4)GlcNAc
# Procedure, shortened: as §1
# GalNAc(b1-3)Gal = target: GalNAc(b1-3)Gal
# Procedure, shortened: as §1
# [4] = target: GalNAc(b1-3)Gal(a1-4)Gal(b1-4)GlcNAc
# Procedure, shortened: as §1
# [5] = target: GalNAc(b1-3)Gal(a1-4)Gal(b1-4)GlcNAc(b1-3)Gal(b1-4)Glc
# Procedure, shortened: as §1
# [6] = target: GalNAc(b1-3)Gal(a1-6)Gal(b1-4)Glc
# Procedure, shortened: as §1
# GalNAc(b1-3)GalNAc = target: GalNAc(b1-3)GalNAc
# Procedure, shortened: as §1
# GalNAc(b1-4)GlcNAc = target: GalNAc(b1-4)GlcNAc
# Procedure, shortened: as §1
# [7] = target: GalNAc(b1-4)GlcNAc(b1-2)Man(a1-3)[GalNAc(b1-4)GlcNAc(b1-2)Man(a1-6)]Man(b1-4)GlcNAc(b1-4)GlcNAc
# Procedure, shortened: as §1
# Glc(a1-4)Glc = target: Glc(a1-4)Glc
# Procedure, shortened: as §1
# Glc(a1-6)Glc(a1-6)Glc = target: Glc(a1-6)Glc(a1-6)Glc
# Procedure, shortened: as §1
# Glc(b1-4)Glc = target: Glc(b1-4)Glc
# Procedure, shortened: as §1
# Glc(b1-6)Glc = target: Glc(b1-6)Glc
# Procedure, shortened: as §1
# GlcA(b1-3)Gal = target: GlcA(b1-3)Gal
# Procedure, shortened: as §1
# GlcA(b1-3)GlcNAc = target: GlcA(b1-3)GlcNAc
# Procedure, shortened: as §1
# GlcA(b1-6)Gal = target: GlcA(b1-6)Gal
# Procedure, shortened: as §1
# [8] = target: GlcNAc(a1-3)Gal(b1-4)GlcNAc
# Procedure, shortened: as §1
# [9] = target: GlcNAc(a1-4)Gal(b1-3)GlcNAc
# Procedure, shortened: as §1
# [10] = target: GlcNAc(a1-4)Gal(b1-4)GalNAc
# Procedure, shortened: as §1
# [11] = target: GlcNAc(a1-4)Gal(b1-4)GlcNAc
# Procedure, shortened: as §1
# [12] = target: GlcNAc(a1-4)Gal(b1-4)GlcNAc(b1-3)Gal(b1-4)Glc
# Procedure, shortened: as §1
# [13] = target: GlcNAc(a1-4)Gal(b1-4)GlcNAc(b1-3)Gal(b1-4)GlcNAc
# Procedure, shortened: as §1
# [14] = target: GlcNAc(a1-4)Gal(b1-4)GlcNAc(b1-3)Gal(b1-4)GlcNAc(b1-3)Gal(b1-4)GlcNAc
# Procedure, shortened: as §1
binder,measurement,setting,value
"CLEC-1 (Homo sapiens), Q9NZH3 (protein) MQAKYSSTRDMLDDDGDTTMSLHSQASATTRHPEPRRTEHRAPSSTWRPVALTLLTLCLVLLIGLAAWGLLFFQYYQLSNTGQDTISQMEERLGNTSQELQSLQVQNIKLAGSLQHVAEKLCRELYNKAGAHRCSPCTEQWKWHGDNCYQFYKDSKSWEDCKYFCLSENSTMLKINKQEDLEFAASQSYSEFFYSYWTGLLRPDSGKAWLWMDGTPFTSELFHIIIDVTSPRSRDCVAILNGMIFSKDCKELKRCVCERRAGMVKPESLHVPPETLGEGD",glycan array binding signal (z-score),Gal3S(b1-4)GlcNAc,-0.161
same,glycan array binding signal (z-score),Gal3S(b1-4)GlcNAc6S,0.002
same,glycan array binding signal (z-score),[1],0.393
same,glycan array binding signal (z-score),[2],0.318
same,glycan array binding signal (z-score),Gal3S4S(b1-4)GlcNAc,0.269
same,glycan array binding signal (z-score),Gal3S6S(b1-4)GlcNAc,0.184
same,glycan array binding signal (z-score),Gal3S6S(b1-4)GlcNAc6S,3.17
same,glycan array binding signal (z-score),Gal4S(b1-4)GlcNAc,-0.356
same,glycan array binding signal (z-score),Gal4S6S(b1-4)GlcNAc,0.053
same,glycan array binding signal (z-score),Gal6S(b1-4)Glc,-0.213
same,glycan array binding signal (z-score),Gal6S(b1-4)Glc6S,0.159
same,glycan array binding signal (z-score),Gal6S(b1-4)GlcNAc,-0.252
same,glycan array binding signal (z-score),Gal6S(b1-4)GlcNAc6S,0.66
same,glycan array binding signal (z-score),GalNAc(a1-3)Gal,-0.34
same,glycan array binding signal (z-score),GalNAc(a1-3)GalNAc,0.165
same,glycan array binding signal (z-score),[3],-0.107
same,glycan array binding signal (z-score),GalNAc(b1-3)Gal,-0.362
same,glycan array binding signal (z-score),[4],-0.23
same,glycan array binding signal (z-score),[5],-0.22
same,glycan array binding signal (z-score),[6],-0.789
same,glycan array binding signal (z-score),GalNAc(b1-3)GalNAc,-0.359
same,glycan array binding signal (z-score),GalNAc(b1-4)GlcNAc,-0.283
same,glycan array binding signal (z-score),[7],0.239
same,glycan array binding signal (z-score),Glc(a1-4)Glc,-0.176
same,glycan array binding signal (z-score),Glc(a1-6)Glc(a1-6)Glc,-0.447
same,glycan array binding signal (z-score),Glc(b1-4)Glc,-0.247
same,glycan array binding signal (z-score),Glc(b1-6)Glc,-0.379
same,glycan array binding signal (z-score),GlcA(b1-3)Gal,-0.201
same,glycan array binding signal (z-score),GlcA(b1-3)GlcNAc,-0.237
same,glycan array binding signal (z-score),GlcA(b1-6)Gal,-0.123
same,glycan array binding signal (z-score),[8],-0.164
same,glycan array binding signal (z-score),[9],-0.516
same,glycan array binding signal (z-score),[10],-0.035
same,glycan array binding signal (z-score),[11],2.86
same,glycan array binding signal (z-score),[12],0.903
same,glycan array binding signal (z-score),[13],0.102
same,glycan array binding signal (z-score),[14],-0.105
